# In publication PMC7761795 (Biochemistry, 2020):
# B1: OTUB1 (C91S) (enzyme)
# chain: not shown
# Target: UBE2D2 (human, UniProt P62837)
# Test: ITC
# Sequence of UniProt P62837 (P62837 whole entry): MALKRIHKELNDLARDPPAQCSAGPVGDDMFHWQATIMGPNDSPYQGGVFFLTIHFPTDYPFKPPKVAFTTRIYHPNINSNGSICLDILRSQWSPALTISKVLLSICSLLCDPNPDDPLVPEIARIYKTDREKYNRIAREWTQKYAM
binder,measurement,value
B1,binding result,binds
